# Source: the RNAGym collection of RNA variant scans (doi:10.7554/elife.90254)
# The source gives no read counts; variants with many changes may rest on few reads.
# B1: OR4K15 (parent)
# chain: GUUAACGGUCAUAGGCCAUGGAAACUAGGAGCACCAUUUCGCUGCCAGUGAAGAAAUGAACAAAGAAAAUCUGGGCCAGGCAGGCAUCAAAAGAAAUAGUCUUGCGCUCAACCAGAAAGUCUGUAAUCAUUUUAAGGGUA
# Variants of: B1
# Assay: self-cleavage, relative activity (ratio to wild type); higher = more cleavage; in vitro, sequencing; the parent is a self-cleaving ribozyme
row,Variant,self-cleavage
1,A13G A91G A116G,1
2,A13G A92G A116U,0.08
3,A13G A111G U122A,0.06
4,A13G C17G A51U,1
5,A13G C32U U57G A86G A96G,0.42
6,A13G C35A U49A A54U,1.43
7,A13G C40U A78U A86G A96G U122C,0.07
8,A13G C40U U43G A52C,0.69
9,A13G G21A U37C U102C A114G,1.14
10,A13G G31A A56G,1.16
11,A13G G41A A62U A63G A114U,0.16
12,A13G G106A A126G,0.03
13,A13G U19C A24G A56G A114G,0.78
14,A13G U19C U39C A62G U70C C88G U97C A110G U131C,0.01
15,A13G U26A U39C U120C A126G,0.52
16,A13G U26A U102A,1.27
17,A13G U26C A89U U97C,0.98
18,A13G U37C A60G,0.84
19,A13G U37C A63G A67G A78U A86G U102G U130C,0.11
20,A13G U37C U72A A86G U87C U131C,0.11
21,A13G U38A A91U U124C,0.44
22,A13G U43A A47U,1
23,A13G U43A U87A A89U,1.12
24,A13G U43C A64G A126G,0.14

row,Variant,self-cleavage
1,A13G U43C U57C,0
2,A13G U49A U87C A92G U132C,1.03
3,A13G U49C A52G U72C A78G U87C A96G,0.51
4,A13G U49C A59G U72C A117G,0.42
5,A13G U49C A110G,0.28
6,A13G U49C U72C A82U,0.41
7,A13G U49G U57C,1.87
8,A13G U70A U122C G123C U124A,0.19
9,A13G U70C C107A A111U,0.04
10,A13G U72C C109U,0.37
11,A13G U72C U124G,0.18
12,A13G U87C U120A,0.51
13,A13G U131C U132C,0.37
14,A13U A18C A60G U97A A135U,0.62
15,A13U A22G A24G A67G U87C U130C,0.72
16,A13U A22G A47C A92G A116U,0.9
17,A13U A22U U39C A47G A60G,0.71
18,A13U A24G A60G A63G A96G G99A G119C,0.34
19,A13U A24G A63G A90G G106A U122A,0
20,A13U A24G A91C A95G A111G,0.03
21,A13U A24G G74A,0.62
22,A13U A24G U26C U38C U72C A82U,0.48
23,A13U A24G U39C A51G,1.89
24,A13U A33G A67G,0.93

row,Variant,self-cleavage
1,A13U A33G U131A,0.52
2,A13U A36U U70C,0.76
3,A13U A47G A60G U72C A114C,0.04
4,A13U A47G G73U U103C A117G,0.05
5,A13U A51G A54G U72C A89G A114U U131C,0.02
6,A13U A51G A55G U120C,0.58
7,A13U A51G U100C,1.74
8,A13U A51U U102C A111G A114G,0
9,A13U A52U A67G A117G A135G,0.98
10,A13U A54G A56G A59C A78U,0.34
11,A13U A54G A111U,0.22
12,A13U A54U A68G U132C,1.69
13,A13U A59G U103C,1.11
14,A13U A62U A89G U120A,1.85
15,A13U A68G A118G,0.53
16,A13U A82G A92G U108C,0.03
17,A13U A86G A90G,0.58
18,A13U A91G U108C,0.04
19,A13U A92G U130C,1.27
20,A13U A95G U124G,2.11
21,A13U A96G U124C,0.75
22,A13U A118G U131C,0.67
23,A13U C16U A54G A69G U124C,0.66
24,A13U C17U A52G A68U,0.72

row,Variant,self-cleavage
1,A13U C35U A111G,0.01
2,A13U G29U A52G,0.97
3,A13U U19A U72C U127C,0.41
4,A13U U26A A55G A110G U131C,0.62
5,A13U U37C A47U A135C,1.45
6,A13U U37C A51G A118U,0.42
7,A13U U38A U39C A86G A89U,1.76
8,A13U U38C A56G A98G,0.76
9,A13U U43A A63U A66G A117G U122A U132C,1.7
10,A13U U49C A90G A95G U103C,0.67
11,A13U U57A A63G A117U,0.12
12,A13U U70C A111G,0.03
13,A13U U120C U131C A135G,1.12
14,G14A A18U A22G,1.5
15,G14A A18U G58U A62G A94G,0.83
16,G14A A22G A63U U108C U130C,0.01
17,G14A A22G U37G A54G A89G A95G,1.04
18,G14A A22U U37C A69G,0.92
19,G14A A23G A24G U72G A89U U132C,0.13
20,G14A A23G U37C U43A A47G A68C A82G,0.55
21,G14A A24G U108A U122C A140G,0
22,G14A A24U A51U,1.34
23,G14A A47U A114G,0.14
24,G14A A52G U87C A96G,0.62

row,Variant,self-cleavage
1,G14A A52U U120C A134G,0.29
2,G14A A54G A59G A118G,1.09
3,G14A A59G A69G C71U A118G,0.05
4,G14A A60G A68G A82U U130C,0.07
5,G14A A60G G93U,1.47
6,G14A A86G A117G,1.96
7,G14A A91G A126G,0.33
8,G14A A96G U103A,0.85
9,G14A A118G U127C,0.24
10,G14A C101G A125G A126U,0.05
11,G14A G20A A62G A118G,0.83
12,G14A U19C A33G U38A A126G,1.25
13,G14A U26C U37C A59C,1.23
14,G14A U37C A110G A135G,0.09
15,G14A U49C A114G,0.21
16,G14A U70C A90G,0.52
17,G14A U72C C112U,0
18,G14C U37C A63U A92G A94G,1.88
19,G14C U37C A82G U130C U131C,0.31
20,G14U A23C U97C U122C,0.98
21,G14U C35U U102A U122C,0.21
22,G14U C45G A110U,1.55
23,G15A A18G A67G A110U,0.29
24,G15A A18G A126G,0.72

row,Variant,self-cleavage
1,G15A A22G A96G U100A U132A,0.38
2,G15A A23G A67G A78G,0.27
3,G15A A23G U108C U130C,0.03
4,G15A A24G A54U A134G,1.75
5,G15A A24G A67G,1.79
6,G15A A30G A86G A90G A114G,0.2
7,G15A A47G A86G C109U,0.08
8,G15A A51U U103C,0.17
9,G15A A54G A62G U127C,0.76
10,G15A A54G A114U,0.06
11,G15A A56G U72A,0.18
12,G15A A60G U133A,0.51
13,G15A A60U C113U,0.08
14,G15A A63G U87C A96G,0.88
15,G15A A78C A90G U124C,0.1
16,G15A A82G A116G,0.21
17,G15A A94G A134G,1.28
18,G15A A96G U97C C113A,0
19,G15A A117G G136U,2.02
20,G15A U19C U49A U87C A135G,1.28
21,G15A U37C A92G A126G,0.39
22,G15A U37C U43C A60U G84U,0.72
23,G15A U39C A129G,1.73
24,G15A U72A A114G,0.08

row,Variant,self-cleavage
1,G15A U72C A82G,0.14
2,G15C A67U U131C,1.32
3,G15C U108A U122C,0.01
4,G15U A18G U122C,1.34
5,G15U A22G U39C A56G U57C U127A,1.73
6,G15U A27G G74A A140G,0.26
7,G15U A62U U131C,1.4
8,G15U A64G U120C,1.42
9,G15U A68G A82C C105U,0.02
10,G15U A68G A116G A118G,0.18
11,G15U G41A G74A,0.21
12,C16A A63G U120C,0.78
13,C16A C40U A52G A116G,0.87
14,C16A C85U C109A,0.16
15,C16A G84A A98G A114U,0.05
16,C16A U26C G53A A126G,1.45
17,C16A U70C A86G U122C,0.07
18,C16G A24G A62U A110G,0.22
19,C16G A51G A86U A114U,0.13
20,C16G A94G A116G,0.47
21,C16U A22G U72C A86G C105A A118G,0
22,C16U A23G A52U,0.18
23,C16U A24G G28A A33G G44A U70C A94G A125G U131C,0.02
